Measured values taken from PubChem BioAssay AID686992 (Broad Institute, 2013).
Among all 260,000 compounds or so, about 960 (0.37%) were called active. The shares of active, inactive and inconclusive entries below differ from those in the screen.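 The calls were made as follows: active = mean E-selectin-positive cell signal at least 10% of the positive control, reached in at least 60% of replicates, without over 20% cell loss; inconclusive = no rule given, readout overlaps actives, possibly toxicity-flagged; inactive = the rest, including those meeting only one limit.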

These compounds were tested against E-selectin (Homo sapiens) (UniProt P16581) (assay: inducers of endothelial E-selectin expression – imaging, HUVEC, immunofluorescence imaging, single point, primary screen (AID 686992;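 also: signal is the percent of cells scored E-selectin positive by PE staining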)). Conditions: at 7.58 µM, stronger effect = higher value, normalized: neutral wells 0, TNF-alpha wells 100.
Outline: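 Test system: HUVEC | Signal: Immunofluorescence imaging | Read-out: Percent E-selectin-positive cells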

Sequence of UniProt P16581 (P16581 whole entry, looked up): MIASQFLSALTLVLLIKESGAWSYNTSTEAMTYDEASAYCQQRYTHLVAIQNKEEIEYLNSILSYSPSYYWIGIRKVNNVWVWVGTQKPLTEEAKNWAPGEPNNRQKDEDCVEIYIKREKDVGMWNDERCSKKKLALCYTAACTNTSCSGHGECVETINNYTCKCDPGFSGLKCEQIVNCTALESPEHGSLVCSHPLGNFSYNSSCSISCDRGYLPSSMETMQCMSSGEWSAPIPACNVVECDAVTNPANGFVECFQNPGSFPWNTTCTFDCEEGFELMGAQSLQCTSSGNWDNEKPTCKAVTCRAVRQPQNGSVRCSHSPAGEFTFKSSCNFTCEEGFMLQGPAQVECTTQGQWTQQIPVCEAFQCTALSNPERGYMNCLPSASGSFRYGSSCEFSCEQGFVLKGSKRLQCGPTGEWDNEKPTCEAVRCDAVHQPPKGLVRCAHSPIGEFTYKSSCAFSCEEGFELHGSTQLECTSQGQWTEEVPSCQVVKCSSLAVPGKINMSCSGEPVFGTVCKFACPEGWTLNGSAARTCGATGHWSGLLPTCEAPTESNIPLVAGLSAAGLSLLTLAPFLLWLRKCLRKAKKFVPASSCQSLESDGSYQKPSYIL

| SMILES | activation |
| --- | --- |
| CCc1nc2ccc(C(=O)NCc3ccccc3OC)cn2c1N(CC)CCN(C)C | inconclusive: 39.4% |
| CCOC(=O)c1sc(NC(=O)c2ccc(S(=O)(=O)N3CCCCC3)cc2)nc1-c1ccccc1 | inconclusive: 53.6% |
| C[C@@H]1CN([C@H](C)CO)C(=O)c2cccc(NC(=O)C3CC3)c2O[C@@H]1CN(C)Cc1ccccc1 | active: 72% |
| C[C@@H]1CN([C@H](C)CO)C(=O)c2cc(NC(=O)c3ccccc3)ccc2O[C@@H](C)CCCCO[C@H]1CN(C)C(=O)CCC(F)(F)F | inactive: 0.657% |
| Cc1ccc(-c2ccc3c(c2)O[C@H](CN(C)C(=O)CN(C)C)[C@H](C)CN([C@H](C)CO)S3(=O)=O)cc1 | inconclusive: 35.8% |
| CC1CC(C)CN(C(=O)c2nn(C)c3c2CS(=O)(=O)c2ccccc2-3)C1 (stereo not given) | active: 94.9% |
| CC(C)(C)C(=O)N(Cc1ccccc1)c1ccccn1 | inconclusive: 68.4% |
| C[C@@H]1CN([C@H](C)CO)C(=O)c2cc(NC(=O)Nc3ccc4c(c3)OCO4)ccc2O[C@@H](C)CCCCO[C@H]1CN(C)S(=O)(=O)c1cccs1 | inactive: 0.143% |
| COCC(=O)N1CC2(C1)CN(C(=O)NC1CCCC1)[C@H](CO)c1c2c2ccc(OC)cc2n1C | inactive: 0.323% |
| O=C(C[C@@H]1C[C@@H]2c3cc(NC(=O)C4CCC4)ccc3O[C@@H]2[C@@H](CO)O1)NCc1ccc(-c2ccccc2)cc1 | inconclusive: 56.4% |
| CC(C)N(CC(N)=O)c1ncnc2sc(-c3ccccc3)cc12 | inconclusive: 44.9% |
| C#CCOCCOCCOCCNc1nc(N2CCOCC2)nc(N2CCN(C(=O)[C@H](CCC(=O)O)n3cc([C@@H](N)CCCCN)nn3)CC2)n1 | inconclusive: 40.8% |
| COc1ccc(C(=O)N2CC(c3ccccc3)CC2=O)cc1 (stereo not given) | active: 82.9% |
| C[C@H](O)C(=O)C1=Nc2c(nc(N)[nH]c2=O)NC1 | inconclusive: 80.1% |
| CCOC(=O)c1ccc(-n2ccnc2)c(NC(=O)c2ccc(C(C)(C)C)cc2)c1 | inconclusive: 66.9% |
| CC=Cc1ccc2n(c1=O)C[C@@H]1[C@@H](CO)[C@H](C(=O)NCc3ccccn3)[C@H]2N1CC1CC1 (mixture of isomers) | inactive: 0.0155% |
| Cc1nc2ccc(NC(=O)[C@@H](NC(=O)c3c(F)cccc3F)C(C)C)cc2s1 | inconclusive: 68.8% |
| C[C@@H]1CN([C@@H](C)CO)C(=O)c2cc(NC(=O)c3ccncc3)ccc2O[C@H]1CN(C)C(=O)Nc1ccc2c(c1)OCO2 | inconclusive: 46.2% |
| O=C1CSC(=S)N1N=Cc1ccccc1O | inconclusive: 42.8% |
| O[Si](CCCN1CCCCC1)(c1ccc(F)cc1)C1CCCCC1 (stereo not given) | inactive: 0.678% |
| CCn1c2ccccc2c2nnc(SCN3C(=O)c4ccccc4C3=O)nc21 | active: 121% |
| NC(=O)CSc1nnc(SCc2ccc(F)cc2)s1 | active: 27.2% |
| CO[C@@H]1CN(C)C(=O)c2ccc(NS(=O)(=O)c3ccccc3)cc2OC[C@H](C)N(Cc2cccnc2)C[C@@H]1C | inactive: -0.0705% |
| C[C@@H]1CN([C@@H](C)CO)C(=O)c2cccc(NC(=O)c3ccc(-c4nccs4)cc3)c2O[C@H]1CN(C)Cc1ccc(Oc2ccccc2)cc1 | active: 71% |

| SMILES | activation |
| --- | --- |
| Cc1cc(NS(=O)(=O)c2ccc(NC(=O)c3ccccc3F)cc2)no1 | inconclusive: 33.1% |
| Cc1noc(C)c1S(=O)(=O)Nc1ccc2c(c1)CC(=O)N([C@H](C)CO)C[C@H](C)[C@@H](CN(C)C(=O)Nc1cccc3ccccc13)O2 | active: 305% |
| Cc1ccccc1Nc1c([N+](=O)[O-])cncc1[N+](=O)[O-] | inactive: 0.025% |
| CC(C)C[C@H](NC(=O)N1CC(=O)Nc2ccccc21)C(=O)N[C@@H](C(=O)O)c1ccccc1 | inconclusive: 39.1% |
| C[C@@H]1CN([C@@H](C)CO)C(=O)c2cc(C#CC3(O)CCCC3)cnc2O[C@@H]1CN(C)Cc1ccccn1 | inconclusive: 45.4% |
| COc1ccc(CN(C)C[C@H]2Oc3c(NC(=O)NC4CCCCC4)cccc3C(=O)N([C@@H](C)CO)C[C@H]2C)cc1 | inconclusive: 40.2% |
| C[C@@H]1CN([C@H](C)CO)C(=O)c2cccc(NC(=O)Nc3ccccc3)c2O[C@@H]1CN(C)C(=O)NC1CCCCC1 | inactive: 0.168% |
| Cc1noc(C)c1S(=O)(=O)N(C)C[C@@H]1Oc2ccc(NC(=O)Nc3ccc4c(c3)OCO4)cc2CC(=O)N([C@H](C)CO)C[C@@H]1C | inconclusive: 34.2% |
| COc1ccc(N2CCN(CCNC(=O)Nc3cc(Cl)ccc3OC)CC2)cc1 | inconclusive: 29.6% |
| CC(C)[C@H](NC(N)=O)C(=O)Nc1cccc(S(=O)(=O)N2CCOCC2)c1 | inconclusive: 36.3% |
| OC[C@H]1[C@@H](c2ccc(-c3ccccc3F)cc2)[C@H]2CN(Cc3cccnc3)CCCCN21 | inactive: -0.005% |
| O=C(NC(=S)NCC1CCCO1)c1ccccc1 (stereo not given) | inconclusive: 61% |
| Cc1noc(C)c1NC(=O)N(C)C[C@@H]1Oc2ccc(NS(=O)(=O)c3cccs3)cc2CC(=O)N([C@H](C)CO)C[C@H]1C | inconclusive: 214% |
| Cc1cc(F)ccc1S(=O)(=O)N1CCCCC1CCNC(=O)C(=O)NCc1ccccn1 (stereo not given) | active: 75% |
| Cn1nnc2cc(C(=O)Nc3ccc4ccccc4c3)ccc21 | inconclusive: 51.8% |
| COc1ccccc1S(=O)(=O)N[C@@H]1CC[C@H](CCn2cc(C3CCCCC3)nn2)O[C@@H]1CO | inactive: 0.184% |
| CCCN(C)C[C@H]1OCCCC[C@@H](C)Oc2ccc(NC(=O)CCC(F)(F)F)cc2C(=O)N([C@H](C)CO)C[C@@H]1C | inactive: -0.191% |
| O=[N+]([O-])c1cc(S(=O)(=O)NCCc2ccccn2)ccc1Cl | inconclusive: 115% |
| COc1cccc(N2C(=O)[C@H]3C(C(=O)c4cnccn4)=NN[C@H]3C2=O)c1 | inconclusive: 32.3% |
| C[C@@H]1CN([C@H](C)CO)S(=O)(=O)c2ccc(C3=CCCCC3)cc2O[C@@H]1CN(C)S(=O)(=O)c1cn(C)cn1 | inactive: 11.2% |
| Cc1noc(C)c1NC(=O)N[C@H]1CC[C@H](CCNC(=O)C2CCCCC2)O[C@H]1CO | inconclusive: 47.5% |
| CC(C)c1cccc(C(C)C)c1NC(=O)CN1C(=O)NC2(CCCCCCC2)C1=O | inconclusive: 67.5% |
| COc1ccc(NC(=O)CN(C)CC(=O)Nc2cccc(C(C)=O)c2)cc1 | inconclusive: 31.7% |
| CC(=O)c1c(C)[nH]c(C(=O)OCC(=O)NCc2cccs2)c1C | inconclusive: 79.9% |

| SMILES | activation |
| --- | --- |
| CO[C@@H]1CN(C)C(=O)c2ccc(NS(=O)(=O)CC(F)(F)F)cc2OC[C@@H](C)N(C)C[C@H]1C | inactive: -0.149% |
| CCCC#Cc1cnc2c(c1)C(=O)N([C@@H](C)CO)C[C@@H](C)[C@H](CN(C)C(=O)Cc1ccncc1)O2 | inconclusive: 28.4% |
| C[C@H]1CN([C@@H](C)CO)C(=O)Cc2cc(NS(=O)(=O)c3ccc(Cl)cc3)ccc2O[C@H]1CN(C)S(C)(=O)=O | inconclusive: 29.8% |
| S=C(Nc1ccc(Br)cc1Cl)NN1CCOCC1 | inconclusive: 65.7% |
| CCOC(=O)C1CCCN(C(=O)c2ccc(CNc3c(N4CCC(C)CC4)c(=O)c3=O)cc2)C1 (stereo not given) | inconclusive: 105% |
| CCCN(C)C1CN(Cc2cn(CCCC(=O)OC)nn2)S(=O)(=O)C1 (stereo not given) | inconclusive: 63.9% |
| C[C@H](CO)N1C[C@H](C)[C@@H](CN(C)Cc2ccc(Cl)c(Cl)c2)Oc2c(NC(=O)c3ccncc3)cccc2C1=O | inconclusive: 36.6% |
| NS(=O)(=O)Oc1ccccc1 | inactive: 0.084% |
| CCOc1cc(/C=N\NC(=O)CN2CCOCC2)ccc1OCc1ccc(F)cc1 | inconclusive: 32.3% |
| Cc1cc(C(=O)CN2C(=O)C(=O)N(Cc3ccco3)C2=O)c(C)n1CCc1ccc(F)cc1 | active: 90.2% |
| N#Cc1ccc(NC(=O)NN2CCCCCC2)cc1 | inconclusive: 59.6% |
| Cc1cc(C(=O)Nc2cccc3c2O[C@H](CN(C)CC2CC2)[C@H](C)CN([C@H](C)CO)C3=O)n(C)n1 | inactive: -0.172% |
| C[C@H]1CN([C@@H](C)CO)C(=O)Cc2cc(NC(=O)Nc3cccc4ccccc34)ccc2O[C@@H]1CN(C)C(=O)Nc1ccc(C(F)(F)F)cc1 | active: 54.7% |
| COC(=O)[C@]12CCCCC=C1N(Cc1ccc3c(c1)OCO3)C(=O)[C@H](CC(=O)NCC13CC4CC(CC(C4)C1)C3)C2 | inconclusive: 147% |
| CC(OC(=O)Cc1ccccc1[N+](=O)[O-])C(=O)Nc1ccc(Cl)cn1 (stereo not given) | inconclusive: 40.6% |
| CCOc1ccccc1N1CCN(C(=O)c2ccc3[nH]c4c(c3c2)CCCC4)CC1 | inactive: -0.919% |
| COc1ccc(NC(=O)N[C@H]2CC[C@@H](CCNS(=O)(=O)c3ccccc3F)O[C@@H]2CO)cc1 | inactive: 0.426% |
| C[C@H](NCCc1ccc(O)cc1)[C@H](O)c1ccc(O)cc1 | inconclusive: 65.3% |
| C[C@H](CO)N1C[C@H](C)[C@H](CN(C)Cc2ccc(-c3ccccc3)cc2)Oc2ccc(NS(=O)(=O)c3cccs3)cc2C1=O | inconclusive: 26.3% |
| Cc1cccc(Nc2nc(N)c([N+](=O)[O-])c(N3CC(C)OC(C)C3)n2)c1 (stereo not given) | inconclusive: 32.5% |
| C[C@@H]1CN([C@@H](C)CO)C(=O)Cc2cc(NC(=O)Nc3ccc(F)cc3)ccc2O[C@@H]1CN(C)Cc1ccc(C(=O)O)cc1 | active: 79.7% |
| C[C@@H]1CN([C@@H](C)CO)C(=O)Cc2cc(NC(=O)c3ccncc3)ccc2O[C@@H]1CN(C)C(=O)Nc1ccc(C(F)(F)F)cc1 | active: 73.8% |
